Patent US20050058645A1 (ZENYTH OPERATIONS, published 2005)

Legend:
[1] = target: T1, chimeric mouse IL-13Rα1-Fc (mouse; human, UniProt O09030 26-340); assay: Biosensor, immobilized human IL-13, chimeric receptor in solution
T1 construct: extracellular domain; Bought (R & D Systems); Preformed disulphide-bonded dimer; also called mIL-13Rα1-Fc; chimeric mouse receptor; not shown: Fc portion of human IgG
T1 sequence (looked up): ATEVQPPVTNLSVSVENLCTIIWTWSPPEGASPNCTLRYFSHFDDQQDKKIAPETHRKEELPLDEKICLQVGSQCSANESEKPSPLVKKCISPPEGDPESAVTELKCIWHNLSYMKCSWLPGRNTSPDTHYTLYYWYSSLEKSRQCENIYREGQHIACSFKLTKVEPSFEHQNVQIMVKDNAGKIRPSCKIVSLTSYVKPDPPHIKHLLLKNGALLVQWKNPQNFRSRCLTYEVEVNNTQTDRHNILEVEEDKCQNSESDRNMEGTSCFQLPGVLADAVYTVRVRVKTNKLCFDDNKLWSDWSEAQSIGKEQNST
From the text: (§1) A qualitative comparison of sensorgrams obtained in this study to data obtained previously with monomeric receptor protein, indicated a substantial improvement in binding kinetics. This improvement is attributed to a much slower off-rate for the dimeric form, compared with the monomeric form, of the receptor. To further quantify this interaction a complete dose-response analysis using both human and mouse chimeric receptor proteins and immobilized human and mouse IL-13 was undertaken.

[2] = target: T2, chimeric human IL-13Rα1-Fc (human, UniProt P78552 22-343); assay: as above
T2 construct: Bought (R & D Systems); Extracellular domain of IL-13Rα1 fused to Fc of human IgG; Expressed as preformed disulphide-bonded dimer; also called hIL-13Rα1-Fc; chimeric human receptor; not shown: Fc portion of human IgG
T2 sequence: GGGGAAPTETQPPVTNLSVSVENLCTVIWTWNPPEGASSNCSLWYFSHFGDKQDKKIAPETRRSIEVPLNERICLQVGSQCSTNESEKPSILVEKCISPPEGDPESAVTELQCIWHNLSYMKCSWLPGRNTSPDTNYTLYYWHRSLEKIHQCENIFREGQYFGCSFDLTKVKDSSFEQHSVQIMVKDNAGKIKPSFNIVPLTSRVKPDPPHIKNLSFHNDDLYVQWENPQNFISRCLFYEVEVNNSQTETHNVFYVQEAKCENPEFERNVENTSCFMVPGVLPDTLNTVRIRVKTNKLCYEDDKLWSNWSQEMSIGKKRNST
From the text: as §1

B1: human IL-13 (ligand)
chain: not shown
Kd [1]: 0.784 nM
Kd [2]: 5.93 nM
